Data on nine variants can be found in the supplement of paper PMC12217912.

B1: TEV protease; numbered along this chain (parent)
chain: MGESLFKGPRDYNPISSSICHLTNESDGHTTSLYGIGFGPFIITNKHLFRRNNGTLVVQSLHGVFKVKDTTTLQQHLVDGRDMIIIRMPKDFPPFPQKLKFREPQREERICLVTTNFQTKSMSSMVSDTSCTFPSGDGIFWKHWIQTKDGQCGSPLVSTRDGFIVGIHSASNFTNTNNYFTSVPKNFMELLTNQEAQQWVSGWRLNADSVLWGGHKVFMVKPEEPFQPVKEATQL

The variants in the assay derive from B1. Briefly: raw area under fraction-flipped curve 0-4 h after induction (AUC4h, not background-subtracted), DNA-recorder readout of cleavage of the substrate (dimensionless); higher = more cleavage of the substrate by the protease variant. Conditions: temperature: 34 °C; time window: 0-4 h after rhamnose induction. On the procedure: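 In vivo DNA recorder in E. coli TOP10(DE3) ΔrhaA at 34 °C. Each TEVp single-site mutant (parent TEVp 0) is paired with a single-site variant of the 7-mer TEVs (canonical ENLYFQ|S). The substrate sits between flexible linkers in a Bxb1-sfGFP-TEVs-SsrA fusion, so cleavage stabilises Bxb1 and speeds flipping of a recombination array, read by NGS. The value is the raw area under the fraction-flipped curve over 0-4 h after rhamnose induction (AUC4h), with ≥20 reads per time point. It is not background-subtracted; inactive controls average about 0.047.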

The list shows a part of the results. Sequences were assembled here from the parent chain. Values near 0.05 are background.
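Note: Bxb1 expression induced with 0.2% (w/v) L-rhamnose at OD600 near 0.5, cultures sampled hourly, flipped fraction per protease–substrate barcode pair counted by paired-end Illumina sequencing.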

As to MGESYFKGPRDYNPISSSICHLTNESDGHTTSLYGIGFGPFIITNKHLFRRNNGTLVVQSLHGVFKVKDTTTLQQHLVDGRDMIIIRMPKDFPPFPQKLKFREPQREERICLVTTNFQTKSMSSMVSDTSCTFPSGDGIFWKHWIQTKDGQCGSPLVSTRDGFIVGIHSASNFTNTNNYFTSVPKNFMELLTNQEAQQWVSGWRLNADSVLWGGHKVFMVKPEEPFQPVKEATQL [L5Y], the “area with substrate ENLYCQS” value worked out at 0.111, the “area with substrate ENLYDQS” value was found to be 0.0383, the “area with substrate ENLYEQS” value amounted to 0.0513 and the “area with substrate ENLYKQS” value is 0.0618. Further, the “area with substrate ENLYLQS” value amounted to 0.0928, the “area with substrate ENLYNQS” value stood at 0.0688, the “area with substrate ENLYPQS” value is 0.0802 and the “area with substrate ENLYRQS” value is 0.0666. Also, the “area with substrate ENLYSQS” value came to 0.0765, the “area with substrate ENLYTQS” value stood at 0.0785 and the “area with substrate ENLYVQS” value amounted to 0.144.
For MGESLFKGPRDFNPISSSICHLTNESDGHTTSLYGIGFGPFIITNKHLFRRNNGTLVVQSLHGVFKVKDTTTLQQHLVDGRDMIIIRMPKDFPPFPQKLKFREPQREERICLVTTNFQTKSMSSMVSDTSCTFPSGDGIFWKHWIQTKDGQCGSPLVSTRDGFIVGIHSASNFTNTNNYFTSVPKNFMELLTNQEAQQWVSGWRLNADSVLWGGHKVFMVKPEEPFQPVKEATQL [Y12F], the “area with substrate ENLYCQS” value was determined as 0.0837, the “area with substrate ENLYDQS” value came out at 0.0737, the “area with substrate ENLYEQS” value amounted to 0.0672 and the “area with substrate ENLYGQS” value was determined as 0.0489. Also, the “area with substrate ENLYHQS” value was found to be 0.0738, the “area with substrate ENLYIQS” value turned out to be 0.112, the “area with substrate ENLYNQS” value amounted to 0.0623 and the “area with substrate ENLYQQS” value was determined as 0.0598. Besides, the “area with substrate ENLYRQS” value amounted to 0.0614, the “area with substrate ENLYSQS” value was determined as 0.0767, the “area with substrate ENLYVQS” value stood at 0.12 and the “area with substrate ENLYWQS” value was determined as 0.0756. The “area with substrate ENLYYQS” value stood at 0.0547.
For MGESLFKGPRDYNPISSSICHLTNESDGHTTSLYGIGFGPFIITNKHLFRRNNGTLVVQSLHGVFKVKDTTTLQQHLVDGRDMIIIRMPKDFPPFPQKLKFREPQREERICLVTTNFQTKSMSSMVSDTSCTFPSGDGIFWKHWIQTKDGQCGSPLVSTRDGFIVGIHSASNFTNTNNYFTSVPKNFMELLTNQEAQQWVSGWRLNADSVLWGGHKVFMVKPEEPFQEVKEATQL [P228E], the “area with substrate ENLYAQS” value came out at 0.076, the “area with substrate ENLYDQS” value was found to be 0.0613, the “area with substrate ENLYHQS” value came out at 0.0786 and the “area with substrate ENLYIQS” value came out at 0.127. For the same variant, the “area with substrate ENLYMQS” value was determined as 0.0917, the “area with substrate ENLYNQS” value came to 0.074, the “area with substrate ENLYPQS” value amounted to 0.0438 and the “area with substrate ENLYWQS” value is 0.0975.
For MGESLFKGPRDYNPISSSICHLTNESDGHTTSLYGIGFGPFIITNKHLFRRNNGTLVVQSLHGVFKVKDTTTLQQHLVDGRDMIIIRMPKDFPPFPQKLKFREPQREERICLVTTNFQTKSMSSMVSDTSCTFPSGDGIFWKHWIQTKDGQCGSPLVSTRDGFIVGIHSASNFTNTNNYFTSVPKNFMELLTNQEAQQWVSGWRLNADSVLWGGHKVFMVKPEEPSQPVKEATQL [F226S], the “area with substrate ENLYAQS” value turned out to be 0.0604, the “area with substrate ENLYDQS” value is 0.0684, the “area with substrate ENLYEQS” value is 0.0593 and the “area with substrate ENLYGQS” value turned out to be 0.066. The “area with substrate ENLYHQS” value was found to be 0.0742, the “area with substrate ENLYIQS” value amounted to 0.15, the “area with substrate ENLYKQS” value is 0.0698 and the “area with substrate ENLYMQS” value is 0.0709. Moreover, the “area with substrate ENLYNQS” value amounted to 0.0764, the “area with substrate ENLYPQS” value stood at 0.0729, the “area with substrate ENLYRQS” value was found to be 0.0621 and the “area with substrate ENLYSQS” value turned out to be 0.0633. In addition, the “area with substrate ENLYWQS” value stood at 0.09.
MGESLFKGPRDYNPISSSICHLTNESDGHTTSLYGIGFGPFIITNKHLFRRNNGTLVVQSLHGVFKVKDTTTLQQHLVDGRDMIIIRMPKDFPPFPQKLKFREPQREERICLVTTNFQTKSMSSMVSDTSCTFPSGDGIFWKHWIQTKDGQCGSPLVSTRDGFIVGIHSASNFTNTNNYFTSVPKNFMELLTNQEAQQWVSGWRLNADSVLWGGHKVFMVHPEEPFQPVKEATQL [K221H]: the “area with substrate ENLYAQS” value stood at 0.102, the “area with substrate ENLYCQS” value is 0.0709, the “area with substrate ENLYDQS” value was 0.161 and the “area with substrate ENLYEQS” value is 0.0615. The “area with substrate ENLYGQS” value stood at 0.0625, the “area with substrate ENLYHQS” value came out at 0.0522, the “area with substrate ENLYIQS” value was found to be 0.0973 and the “area with substrate ENLYKQS” value worked out at 0.0646. The “area with substrate ENLYMQS” value came to 0.0812, the “area with substrate ENLYNQS” value stood at 0.0586, the “area with substrate ENLYPQS” value is 0.0593 and the “area with substrate ENLYQQS” value was determined as 0.0632. For the same variant, the “area with substrate ENLYSQS” value amounted to 0.0768, the “area with substrate ENLYTQS” value is 0.078, the “area with substrate ENLYVQS” value came to 0.105 and the “area with substrate ENLYWQS” value was determined as 0.0589. In addition, the “area with substrate ENLYYQS” value stood at 0.0413.
Take MGESLFKGPRDYNPISSSICHLTNESDGHTTSLYGIGFGPFIITNKHLFRRNNGTLVVQSLHGVFKVKDTTTLQQHLVDGRDMIIIRMPKDFPPFPQKLKFREPQREERICLVTTNFQTKSMSSMVSDTSCTFPSGDGIFWKHWIQTKDGQCGSPLVSTRDGFIVGIHSASNFTNTNNYFTSVPKNFMELLTNQEAQQWVSGWRLNADSVLWGGHKVFMVMPEEPFQPVKEATQL [K221M]: the “area with substrate ENLYAQS” value was 0.0441, the “area with substrate ENLYDQS” value was found to be 0.0382, the “area with substrate ENLYEQS” value was found to be 0.058 and the “area with substrate ENLYGQS” value turned out to be 0.0696. Also, the “area with substrate ENLYHQS” value turned out to be 0.0648, the “area with substrate ENLYIQS” value amounted to 0.0901, the “area with substrate ENLYKQS” value amounted to 0.0403 and the “area with substrate ENLYLQS” value was 0.0615. The “area with substrate ENLYNQS” value was 0.0677, the “area with substrate ENLYPQS” value amounted to 0.0675, the “area with substrate ENLYQQS” value turned out to be 0.0675 and the “area with substrate ENLYRQS” value stood at 0.0696. Also, the “area with substrate ENLYSQS” value came out at 0.0706, the “area with substrate ENLYVQS” value was found to be 0.101 and the “area with substrate ENLYYQS” value was 0.0596.
Consider MGESLFKGPRDYNPISSSICHLTNESDGHTTSLYGIGFGPFIITNKHLFRRNNGTLVVQSLHGVFKVKDTTTLQQHLVDGRDMIIIRMPKDFPPFPQKLKFREPQREERICLVTTNFQTKSMSSMVSDTSCTFPSGDGIFWKHWIQTKDGQCGSPLVSTRDGFIVGIHSASNFTNTNNYFTSVPKNFMELLTNQEAQQWVSGWRLNADSVLWGGHKVFMVKPEEPFQPVKPATQL [E231P], for which the “area with substrate ENLYAQS” value amounted to 0.0559, the “area with substrate ENLYEQS” value turned out to be 0.0445, the “area with substrate ENLYNQS” value is 0.0943 and the “area with substrate ENLYQQS” value stood at 0.0744. In addition, the “area with substrate ENLYSQS” value came to 0.0634 and the “area with substrate ENLYVQS” value was determined as 0.103.
MGESLFKGPRDYNPISSSICHLTNESDGHTTSLYGIGFGPFIITNKHLFRRNNGTLVVQSLHGVFKVKDTTTLQQHLVDGRDMIIIRMPKDFPPFPQKLKFREPQREERICLVTTNFQTKSMSSMVSDTSCTFPSGDGIFWKHWIQTKDGQCGSPLVSTRDGFIVGIHSASNFTNTNNYFTSVPKNFMELLTNQEAQQWVSGWRLNADSVLWGGHKVFMVKPEEPFQPVKLATQL [E231L]: the “area with substrate ENLYAQS” value was determined as 0.0694, the “area with substrate ENLYCQS” value was found to be 0.099, the “area with substrate ENLYEQS” value came to 0.0576 and the “area with substrate ENLYHQS” value worked out at 0.0593. For the same variant, the “area with substrate ENLYIQS” value is 0.111, the “area with substrate ENLYKQS” value was determined as 0.0705, the “area with substrate ENLYLQS” value was found to be 0.0772 and the “area with substrate ENLYNQS” value came out at 0.0769. Further, the “area with substrate ENLYPQS” value was determined as 0.108, the “area with substrate ENLYRQS” value was found to be 0.062 and the “area with substrate ENLYSQS” value came to 0.0635.
In the case of MGESLFKGPRDYNPISSSICHLTNESDGHTTSLYGIGFGPFIITNKHLFRRNNGTLVVQSLHGVFKVKDTTTLQQHLVDGRDMIIIRMPKDFPPFPQKLKFREPQREERICLVTTNFQTKSMSSMVSDTSCTFPSGDGIFWKHWIQTKDGQCGSPLVSTRDGFIVGIHSASNFTNTNNYFTSVPKNFMELLTNQEAQQWVSGWRLNADSVLWGGHKVFMVKPEEPFQPPKEATQL [V229P], the “area with substrate ENLYAQS” value is 0.0569, the “area with substrate ENLYCQS” value was determined as 0.0871, the “area with substrate ENLYDQS” value came out at 0.0606 and the “area with substrate ENLYEQS” value was determined as 0.0727. Moreover, the “area with substrate ENLYGQS” value turned out to be 0.0634, the “area with substrate ENLYIQS” value stood at 0.156, the “area with substrate ENLYKQS” value was 0.0615 and the “area with substrate ENLYMQS” value worked out at 0.0902. For the same variant, the “area with substrate ENLYNQS” value worked out at 0.0664, the “area with substrate ENLYPQS” value is 0.0686, the “area with substrate ENLYQQS” value came out at 0.0579 and the “area with substrate ENLYVQS” value came to 0.114. Further, the “area with substrate ENLYWQS” value amounted to 0.0818.
